Data reported in US20200002426A1 (published 2020).
“And” between values parts separate entries of the source, which are not always exact repeats. Equal values may be shown once.

Target: huTGF-β1 (human, UniProt P01137 part only)
Assay: ELISA; bridging ELISA, coated huTGF-β1, detected with biotinylated huVEGF165

huTGF-β1, sequence (P01137 279-390): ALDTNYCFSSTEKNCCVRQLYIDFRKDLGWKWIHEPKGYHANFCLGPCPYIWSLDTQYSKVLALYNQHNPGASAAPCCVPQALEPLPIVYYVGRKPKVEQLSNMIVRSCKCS

B1: Bi-A1B-1 (bispecific antibody)
heavy: EVQLVQSGGGVVQPGGSLRLSCAASGYTFTNYGMNWVRQAPGKGLEWVGWINTYTGEPTYAADFKRRFTFSLDTSKSTAYLQMNSLRAEDTAVYYCAKYPHYYGSSHWYFDVWGQGTLVTVSSASTKGPSVFPLAPSSKSTSGGTAALGCLVKDYFPEPVTVSWNSGALTSGVHTFPAVLQSSGLYSLSSVVTVPSSSLGTQTYICNVNHKPSNTKVDKRV[human IgG1 Fc left out]GGGGSGGGGSGGGGSGGGGSGIPPHVQKSVNNDMIVTDNNGAVKFPQLCKFCDVRFSTCDNQKSCMSNCSITSICEKPQEVCVAVWRKNDENITLETVCHDPKLPYHDFILEDAASPKCIMKEKKKPGETFFMCSCSSDECNDNIIFSEEYNTSNPD
light: DIQMTQSPSSLSASVGDRVTITCSASQDISNYLNWYQQKPGKAPKVLIYFTSSLHSGVPSRFSGSGSGTDFTLTISSLQPEDFATYYCQQYSTVPWTFGQGTKVEIKRTVAAPSVFIFPPSDEQLKSGTASVVCLLNNFYPREAKVQWKVDNALQSGNSQESVTEQDSKDSTYSLSSTLTLSKADYEKHKVYACEVTHQGLSSPVTKSFNRGEC
  EC50: 1.8 nM and 0.09 µg/mL
